Measured values: the BET-seq Pho4 binding data (Le et al. 2018)
The other results are listed elsewhere or left out. The energies were worked out here from pooled read counts, against the library average; single values are noisy.

The sequences below were run against T1, Pho4 (S. cerevisiae) (UniProt P07270) (assay: relative binding free energy (BET-seq); higher = weaker binding). Conditions: reference: library average.
T1 sequence: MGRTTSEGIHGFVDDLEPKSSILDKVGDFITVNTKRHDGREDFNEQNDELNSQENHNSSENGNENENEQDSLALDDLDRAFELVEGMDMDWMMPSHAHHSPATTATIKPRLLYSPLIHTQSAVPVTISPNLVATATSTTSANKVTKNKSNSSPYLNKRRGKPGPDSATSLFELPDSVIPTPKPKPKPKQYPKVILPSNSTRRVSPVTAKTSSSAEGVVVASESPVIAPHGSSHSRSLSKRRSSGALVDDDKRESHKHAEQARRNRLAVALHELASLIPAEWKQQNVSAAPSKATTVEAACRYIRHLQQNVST

Sequence	relative binding free energy
TCTGTCACGTGTTTAG	0.19 kcal/mol
TGTATCACGTGTTTTA	0.16 kcal/mol
ATAGGCACGTGGAAGG	-0.1 kcal/mol
GATGACACGTGCGTGG	0.05 kcal/mol
TCACGCACGTGGGTTG	-0.29 kcal/mol
GATGGCACGTGTTGAT	0.04 kcal/mol
CTATACACGTGAGGGT	0.13 kcal/mol
TAGGGCACGTGAGTTT	0.15 kcal/mol
TGGACCACGTGTTTGG	0 kcal/mol
GTGGCCACGTGAGGGC	0.06 kcal/mol
TGAGCCACGTGAGTGT	0.12 kcal/mol
GGTGGCACGTGATGGA	0.03 kcal/mol
AGTCACACGTGGGGGA	-0.24 kcal/mol
TGTGTCACGTGGTGCT	-0.05 kcal/mol
AGGAGCACGTGGAGAG	-0.2 kcal/mol
TTATGCACGTGTGATT	-0.06 kcal/mol
TTGTGCACGTGCGTAA	-0.15 kcal/mol
AAGGACACGTGGGTGA	-0.21 kcal/mol
CTTTGCACGTGCTTTG	-0.02 kcal/mol
GGAGACACGTGGTGGA	-0.18 kcal/mol
TAAAACACGTGAAGGT	0.26 kcal/mol
AAGAGCACGTGTACGG	0.02 kcal/mol
CGGGGCACGTGTCTTG	-0.15 kcal/mol
GTAGACACGTGTATTG	0.08 kcal/mol
TCAATCACGTGTTGAG	0.22 kcal/mol
GAGAGCACGTGATGTG	0.02 kcal/mol

Sequence	relative binding free energy
AGCAGCACGTGGTTGG	-0.08 kcal/mol
CTTAGCACGTGAGTTG	0.12 kcal/mol
GTTTGCACGTGAATTA	0.24 kcal/mol
TGGCGCACGTGATGGG	0 kcal/mol
CAGTACACGTGGGGAG	-0.02 kcal/mol
TAGGTCACGTGAATTT	0.31 kcal/mol
TTCGGCACGTGTACGG	-0.11 kcal/mol
GCAAACACGTGTTGGT	0.07 kcal/mol
TGTAGCACGTGTATCA	-0.03 kcal/mol
AATATCACGTGAGTTG	0.24 kcal/mol
CGTAGCACGTGGCGCG	-0.14 kcal/mol
ATGCACACGTGGGTAT	-0.18 kcal/mol
AGATTCACGTGGAGTA	0.33 kcal/mol
AGTATCACGTGTGGAC	0.24 kcal/mol
TTAGTCACGTGTAGGA	0.16 kcal/mol
TGGAGCACGTGAATTT	0.16 kcal/mol
AGGGACACGTGTGGCT	0.07 kcal/mol
TGTATCACGTGGGAAG	0.01 kcal/mol
CGAGGCACGTGGGGTT	-0.21 kcal/mol
TAATGCACGTGTGGCG	0.01 kcal/mol
ACAGTCACGTGGGGGA	-0.2 kcal/mol
CTTTACACGTGGGTAG	-0.06 kcal/mol
TTTGTCACGTGACTGT	0.11 kcal/mol
CGGGACACGTGGTGTG	-0.1 kcal/mol
TGTAGCACGTGGTGGT	-0.1 kcal/mol
GTGATCACGTGGTGAG	0.02 kcal/mol

Sequence	relative binding free energy
GTGTCCACGTGAGCTG	0.35 kcal/mol
GATGTCACGTGCGGGC	0.13 kcal/mol
GAGAGCACGTGATGGT	0.15 kcal/mol
TCGGGCACGTGGAGAG	-0.01 kcal/mol
ATAGTCACGTGGTGAT	-0.04 kcal/mol
GGGACCACGTGGGTGT	-0.24 kcal/mol
TGAGTCACGTGAAGTT	0.26 kcal/mol
GTAATCACGTGTTACT	0.15 kcal/mol
GTTGGCACGTGTTCGG	-0.03 kcal/mol
GGCTTCACGTGTGGGA	0.32 kcal/mol
TTTTGCACGTGGGATG	0.02 kcal/mol
GAGCGCACGTGGGTTT	-0.17 kcal/mol
ACGATCACGTGGGGAG	-0.01 kcal/mol
GGTTTCACGTGGAGGA	0.29 kcal/mol
GGAAGCACGTGGCATG	-0.25 kcal/mol
AACGTCACGTGTTGTA	0.11 kcal/mol
GTTATCACGTGCTGTG	0.1 kcal/mol
TGTTCCACGTGGGCAG	-0.13 kcal/mol
AGCTGCACGTGGGGTC	-0.24 kcal/mol
ATTGGCACGTGACGGT	0.04 kcal/mol
ATCATCACGTGGATGT	-0.02 kcal/mol
TGCGGCACGTGGTAAA	-0.04 kcal/mol
TCAGTCACGTGGGGTA	-0.18 kcal/mol
ATGTGCACGTGTAGGC	-0.1 kcal/mol
CGTGGCACGTGAGATG	0.13 kcal/mol
CTGATCACGTGCTGTG	0.19 kcal/mol

Sequence	relative binding free energy
GGGGTCACGTGGATAG	0.05 kcal/mol
TTGAGCACGTGGCTAT	-0.2 kcal/mol
TGCGGCACGTGGTGTG	-0.17 kcal/mol
AGCGTCACGTGTTCGG	-0.06 kcal/mol
TTAAGCACGTGTTGTT	-0.16 kcal/mol
AGATGCACGTGAATTA	0.31 kcal/mol
ATGGCCACGTGGTTTT	-0.2 kcal/mol
GTTTGCACGTGTTAAG	0.18 kcal/mol
TGGGTCACGTGAACCG	0.24 kcal/mol
TAGAGCACGTGGTGAG	-0.09 kcal/mol
GGTGGCACGTGAGTTT	0.29 kcal/mol
TTAATCACGTGTCTAT	0.13 kcal/mol
GCTGACACGTGGGGGA	-0.15 kcal/mol
CTGTACACGTGGGTGC	0.03 kcal/mol
TTCGGCACGTGTTTAG	-0.08 kcal/mol
TAATTCACGTGAATAA	0.45 kcal/mol
AGTTGCACGTGCGTGA	-0.07 kcal/mol
TCTTGCACGTGGGAGG	-0.07 kcal/mol
TCTTTCACGTGGTGTC	0.06 kcal/mol
TTGTGCACGTGAAAGC	0.16 kcal/mol
GTGGGCACGTGCAGTG	-0.1 kcal/mol
TGGAGCACGTGAGAAG	0.29 kcal/mol
CGTCGCACGTGAGGGG	0.15 kcal/mol
GCTGTCACGTGGATTT	0.18 kcal/mol
GTAGTCACGTGACTTT	0.26 kcal/mol
TTTTGCACGTGGAAGG	0.1 kcal/mol

Sequence	relative binding free energy
ACATGCACGTGTATGT	-0.12 kcal/mol
GTTTTCACGTGGGAGA	0.17 kcal/mol
AGATGCACGTGAGTAG	0.18 kcal/mol
TGCAACACGTGGGAGT	0.04 kcal/mol
GTATTCACGTGCGTTT	0.22 kcal/mol
GGGCTCACGTGTCGGA	0.29 kcal/mol
GGGTACACGTGCGTGA	0.06 kcal/mol
TTGTCCACGTGTTAGT	-0.04 kcal/mol
TTCGGCACGTGTTCTG	-0.11 kcal/mol
TGCCTCACGTGGTGTA	0.08 kcal/mol
AGAATCACGTGGTTGT	0.12 kcal/mol
GTCTGCACGTGCTGTA	0.13 kcal/mol
ATCTTCACGTGTAATT	0.25 kcal/mol
TGAATCACGTGTTAAA	0.33 kcal/mol
GTTGACACGTGGGAGT	-0.02 kcal/mol
TGGTCCACGTGTTCTG	0.06 kcal/mol
CTTTGCACGTGTAAGG	0.14 kcal/mol
AAGAGCACGTGATTTT	0.02 kcal/mol
TTTCTCACGTGTGAAT	0.4 kcal/mol
GGGGGCACGTGACGCA	-0.04 kcal/mol
CGGGTCACGTGAATTG	0.25 kcal/mol
TGTTTCACGTGATCGA	0.29 kcal/mol
CGCGTCACGTGGTTAG	0.1 kcal/mol
GGGAACACGTGCGTGA	0.14 kcal/mol
TATTGCACGTGTTGCA	-0.08 kcal/mol
TTGTCCACGTGGAGCT	0.15 kcal/mol

Sequence	relative binding free energy
GGGGTCACGTGTGTCC	0.31 kcal/mol
CGGGCCACGTGAGGGT	0.13 kcal/mol
TACTGCACGTGATTGT	0.11 kcal/mol
TTATACACGTGGGTTG	-0.08 kcal/mol
TGATTCACGTGGTTTA	0.18 kcal/mol
GTTCTCACGTGACGTG	0.3 kcal/mol
GGTCGCACGTGGAGTA	0.03 kcal/mol
AGACTCACGTGGGTTT	0.09 kcal/mol
CGTAGCACGTGTTGCG	-0.13 kcal/mol
ATACTCACGTGTTTAG	0.31 kcal/mol
ATATTCACGTGTGATT	0.34 kcal/mol
TTGGTCACGTGCTTTA	0.06 kcal/mol
GTCATCACGTGGGGTC	0.03 kcal/mol
CGGTACACGTGTTGAG	0.01 kcal/mol
TTTCTCACGTGAATGT	0.43 kcal/mol
GTTGTCACGTGCTTAT	0 kcal/mol
AACGGCACGTGGAGGT	0.01 kcal/mol
TGTCACACGTGTGGCA	0.25 kcal/mol
TTTTACACGTGGGCTT	0.02 kcal/mol
TGGGTCACGTGAGGGT	0.27 kcal/mol
GTACGCACGTGTGGGT	0.09 kcal/mol
TTTTGCACGTGATCGA	0.02 kcal/mol
GGGCCCACGTGTTATG	0.08 kcal/mol
AAGTGCACGTGAGGGG	0.23 kcal/mol
ATAAACACGTGTGGTT	0.07 kcal/mol
AGCATCACGTGGGTGT	-0.15 kcal/mol

Sequence	relative binding free energy
TGTTCCACGTGATGGC	0.23 kcal/mol
GTGTACACGTGTTGGC	0.05 kcal/mol
ATAAGCACGTGTGGAT	-0.02 kcal/mol
GTTGGCACGTGGCTGC	-0.06 kcal/mol
GTTATCACGTGTTTAA	0.19 kcal/mol
TTTCTCACGTGAGTAT	0.38 kcal/mol
TTGGTCACGTGTAATT	0.3 kcal/mol
AGAAACACGTGGGGCT	0.08 kcal/mol
TAGAGCACGTGTTGAG	0 kcal/mol
TGAGCCACGTGTTGGA	-0.07 kcal/mol
AGTTCCACGTGCGGGG	-0.1 kcal/mol
TGGAACACGTGGTATA	-0.13 kcal/mol
TGTAACACGTGTAGTC	0.03 kcal/mol
GTGGGCACGTGCAGAG	-0.16 kcal/mol
CTGTACACGTGTTTTT	0.15 kcal/mol
TTTGACACGTGTCTAT	0.06 kcal/mol
TGAAGCACGTGGGTCT	-0.31 kcal/mol
GGGATCACGTGGACGA	0.28 kcal/mol
GATTGCACGTGGGGAC	0.09 kcal/mol
GTTGACACGTGGTCTG	-0.06 kcal/mol
TTTTACACGTGTATTT	0.21 kcal/mol
AATGTCACGTGTAGTA	0.14 kcal/mol
TTAATCACGTGGTCGG	0.02 kcal/mol
GTTGACACGTGTTCGT	0 kcal/mol
GGGGACACGTGAAAGG	0.32 kcal/mol
GAGGGCACGTGACGGT	0.1 kcal/mol

Sequence	relative binding free energy
ATGAGCACGTGTGGGT	-0.07 kcal/mol
TAGGGCACGTGGACGA	-0.14 kcal/mol
AACTACACGTGGGTAG	0.07 kcal/mol
TGGGTCACGTGCCTTG	0.01 kcal/mol
GTGCGCACGTGGGTGA	-0.17 kcal/mol
TTTAGCACGTGAGAGT	0.17 kcal/mol
ATGGTCACGTGTGGCT	0.15 kcal/mol
TCGTGCACGTGATAGG	0.1 kcal/mol
TGGGCCACGTGAAGTA	0.26 kcal/mol
TCAAGCACGTGGGGAG	-0.23 kcal/mol
TCGTACACGTGGGTTT	-0.04 kcal/mol
TTATTCACGTGCTTAA	0.15 kcal/mol
TCTGTCACGTGGGTTC	-0.01 kcal/mol
TCGGTCACGTGGGAGT	0.03 kcal/mol
AAGTGCACGTGTTTCG	0.06 kcal/mol
GTGGTCACGTGTATGG	0.24 kcal/mol
GAGAACACGTGGTGTG	-0.08 kcal/mol
GGTTTCACGTGGCCCT	0.35 kcal/mol
TATATCACGTGATGGG	0.26 kcal/mol
CGGTGCACGTGAAGGC	0.14 kcal/mol
TGAATCACGTGGGCTA	0.06 kcal/mol
TTTTGCACGTGATACA	0.08 kcal/mol
CGAGGCACGTGGAGGC	-0.06 kcal/mol
TAGTACACGTGGCTGG	0.07 kcal/mol
TCATTCACGTGTTTTG	0.24 kcal/mol
CAGGGCACGTGGATTG	0.03 kcal/mol

Sequence	relative binding free energy
TTGTTCACGTGACTCG	0.38 kcal/mol
TGTAACACGTGGGGGC	-0.12 kcal/mol
AGTCACACGTGGGTCG	0.11 kcal/mol
AGTTTCACGTGGTCGG	0.23 kcal/mol
GATTACACGTGTTGAG	0.18 kcal/mol
CGGGGCACGTGTGGTA	0.09 kcal/mol
GTCTTCACGTGGCGTT	0.23 kcal/mol
GATGTCACGTGCGATT	0.16 kcal/mol
GAGGACACGTGGGTCA	0.09 kcal/mol
TTGATCACGTGAGACG	0.28 kcal/mol
AATGACACGTGGAGTG	0.06 kcal/mol
GATTACACGTGGATGG	0.18 kcal/mol
AACGGCACGTGGGTTG	-0.16 kcal/mol
GGGGCCACGTGAATGT	0.29 kcal/mol
TAGTACACGTGTGTGC	-0.03 kcal/mol
AAGAGCACGTGGGGCG	-0.23 kcal/mol
TTTCCCACGTGGGAGT	-0.1 kcal/mol
GTTTGCACGTGGTTCC	0.22 kcal/mol
AGTTTCACGTGGGATT	0.14 kcal/mol
GTCTGCACGTGTGGTT	0.09 kcal/mol
GAGCTCACGTGATGGT	0.33 kcal/mol
GGTATCACGTGTATGA	0.23 kcal/mol
